# In the supplement of paper PMC10338343:
# ± gives the standard deviation. The list shows a part of the results, in another mix than the full data.
# System: MIWI (PIWIL1) piRISC loaded with L1MC piRNA (30 nt)
# Assay: pre-steady-state target cleavage rate (min^-1); MIWI and MILI are mouse PIWI proteins and EfPiwi is from a freshwater sponge; tags in brackets are library labels; higher = faster piRNA-guided slicing of the target
# Conditions: guide: L1MC piRNA 5'p-UAACUAAAUACUAUGCAAGCUGUAGGUCCU; auxiliary factor: 500 nM mouse GTSF1
# Outline: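 At 33 °C in HEPES–potassium acetate buffer, a transcribed, DNA-blocked target RNA library […] was exposed for 0–8 or 0–960 min to 1 nM active affinity-purified piRISC carrying a single synthetic guide, with or without 500 nM GTSF1 partner protein. Uncleaved targets were sequenced and normalised to depth and to weakly complementary targets. With three trials pooled and k3 capped at 0.0001 min^-1, a burst-and-steady-state fit produced the pre-steady-state cleavage rate.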
# 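Further: 1 nM active piRISC with 0.1 nM target library at 33 °C single turnover.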
row,Sequence,pre-steady-state target cleavage rate
1,UCCACCUACAGCUUCCAUAGUAUUUAGUUA,0.292 ± 0.088
2,UCCUCCUACACGAUGCAUAGUAUUUUCAAA,0.13 ± 0.032
3,UCCUGGAUGAGGUUGCAUAGUAUUUAGAUA,0.0173 ± 0.0062
4,UCCUGGAUGUCGUAUGCAUAGUAUUUAGUUA,0.011 ± 0.0041
5,UCCACCUACAGGAUGCAUAGUAUUUUCAAA,0.299 ± 0.053
6,UCGACCUACAGCUUGCCAUAGUAUUUAGUUA,0.295 ± 0.032
7,UCCUGGUACAGCUUGCAUAGUAUUAUCUAA,0.149 ± 0.032
8,AGGACCUACAGCUUGCAAUCUAUUUAGUAA,0.104 ± 0.025
9,UCCUCCUACAGCUUCGAUAGUAUUUACAAA,0.0331 ± 0.011
10,UCCUGGAUGUCGAAGCAUAGUAUUUACUUA,0.00463 ± 0.0029
11,AGGACCUACAGCUUGCAAUCUAUUUAGUUA,0.173 ± 0.018
12,UCCUGGAUCAGCUUGCAUGUAUUUAGUUA,0.0152 ± 0.0038
13,UCCUGGAUGAGCUUGCAUAGUAAAUAGUAA,0.0157 ± 0.0069
14,UCCUGGAUGAGCUUGCUAAGUAUUUAGUUA,0.00707 ± 0.0029
15,UCCUGCUACAGCUUGCAUAGUAUUAAGAUA,0.196 ± 0.041
16,UCCUGGAACAGCUUGCAUAGUAUUUUCAAA,0.214 ± 0.034
17,AGGACCUACAGCUACGAUAGUAUUUAGUUA,0.169 ± 0.019
18,UCCUGGUACAGCUUGCAUAGAAUUUUCAAA,0.0135 ± 0.0085
19,UGCACCUACAGCUUGCAUAGUAUUUACAAA,0.345 ± 0.05
20,UCCUGGAUCAGCUAGCAUAGUAUUUAGAAA,0.136 ± 0.022

row,Sequence,pre-steady-state target cleavage rate
1,UCCACCUACACGUUGCAUAGUAUUUACAAA,0.208 ± 0.024
2,UCCACCUACAGCUUGCUUAGUAUUUUCAAA,0.167 ± 0.026
3,UCCUCCUACAGCUUCCAUAGUAUUUACUUA,0.0319 ± 0.013
4,UCCUGCUACAGCUUGCAUAGUAUAAACAAA,0.258 ± 0.046
5,UCCUGGAUGUCCUUGCAUAGUAUAAAGUUA,0.00941 ± 0.0045
6,UGGACCUACAGCUUGCAUAGUAAAAUCAAA,0.0748 ± 0.023
7,UGGACCUACAGCUUGCAUAGAUUUUAGAAA,0.0691 ± 0.023
8,UCGACCUACAGCUUGCAUAGUUUUUACAAA,0.239 ± 0.039
9,UCCUGGAUGUCGUCUGCAUAGUAUUUAGUUA,0.0162 ± 0.0045
10,UCGACCUACAGCUUGCAUCAGUAUUUAGUUA,0.11 ± 0.041
11,UCCACCUACAGCUUGCAUAGUAUUUACAAA,0.296 ± 0.044
12,AGGACCUACACGUUGCAUAGUAUUUACAAA,0.34 ± 0.043
13,UGGACCUACAGCUUGGUAAGUAUUUAGUUA,0.0396 ± 0.0067
14,UCGACCUACAGCUUCGUUAGUAUUUAGUUA,0.0763 ± 0.01
15,UCCUGGAUGUGCUUGCAUAGUUUAUAGUUA,0.00493 ± 0.0041
16,AGGACCUACAGCUUGCAUAGAUAUUAGUUA,0.187 ± 0.06
17,UCCUGGUACAGCUUGGUUAGUAUUUAGAAA,0.169 ± 0.045
18,UCCUGGUACAGGUUGCAUAGUAUUUACAAA,0.0866 ± 0.018
19,UCCUGGAUGUCGAACCAUAGUAUUUAUGUUA,< 0.0001
20,UCCACCUACAGCUUGUCAUAGUAUUUAGUUA,0.363 ± 0.033
